Experimental data from PubChem BioAssay (NCI).
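Grown in 96-well plates, cells were treated for 48 hours with each compound at five concentrations. Insufficient inhibition: endpoint recorded as highest concentration tested. At the TGI there is no net growth.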 Certain results were filed several times, with different values. The other results are left out here. The source may hold further records. A record mostly stands for its own series of concentrations, which the source does not state; some values may only mark the edge of a range.

Columns and labels:
Assay in all cases: NCI tumour cell line growth inhibition, 48 h
CCRF-CEM leukemia = test system: CCRF-CEM leukemia
EKVX NSCLC = test system: EKVX NSCLC
NCI-H460 lung = test system: NCI-H460 lung
RXF 393 renal = test system: RXF 393 renal
P388 leukemia = test system: P388 leukemia
UACC-62 melanoma = test system: UACC-62 melanoma
LOX IMVI melanoma = test system: LOX IMVI melanoma
DMS 273 small cell lung = test system: DMS 273 small cell lung
HOP-62 NSCLC = test system: HOP-62 NSCLC

Structure (SMILES) | TGI (CCRF-CEM leukemia) | TGI (EKVX NSCLC) | TGI (NCI-H460 lung) | TGI (RXF 393 renal) | TGI (P388 leukemia) | TGI (UACC-62 melanoma) | TGI (LOX IMVI melanoma) | TGI (DMS 273 small cell lung) | TGI (HOP-62 NSCLC)
NC(=O)c1csc(C2OC(CO)C(O)C2O)n1 (centres undefined) | 96.9 µM and 4.52 mM |  |  |  |  |  |  |  | 
CCN(CC)c1ccc2cc(C(=O)Nc3ccc4[nH]c(C(=O)N5C[C@@H](CCl)c6c5cc(OC(=O)Nc5ccccc5)c5[nH]cc(C)c65)cc4c3)oc2c1 |  | 0.688 nM and > 1 mM | 0.281 nM and 274 µM | 0.389 nM and 367 µM | 0.368 nM and 587 µM | 0.233 nM and 240 µM | 0.363 nM and > 1 mM | 0.283 nM and 527 µM | 0.715 nM and 426 µM
